Assay results from the RNAGym collection of RNA variant scans (doi:10.7554/elife.90254).
Read counts are not given, so values of variants with three or more changes are uncertain.

B1: LINE1-mini (parent)
chain: GGCAGAGCUCAACACAGCGUGGCAAAGUGGCUGUGGCUAGACUGCC

Variants of: B1
Experiment: self-cleavage, relative activity (ratio to wild type); higher = more cleavage; in vitro, sequencing; the parent is a self-cleaving ribozyme

| Variant | self-cleavage |
| --- | --- |
| G17A G33U C46U | 0.09 |
| G17A C18A A26U C31A | 0.03 |
| A16U A41U U43A | 0.14 |
| A16U G27A G29A | 0.68 |
| A16U G17A A24C U28C C42U | 0.05 |
| G17A G19C G27C | 0.42 |
| G17A G22A C37A C45G | 0.06 |
| G17A A41U G44C | 0.03 |
| G17A G29C G40U C46U | 0.09 |
| A16U G19U U34G | 0.03 |
| G17C C23G G30U C37U | 0.05 |
| G17A G19A A24G A26C U28A U32C | 0.04 |
| A16U G30A G36C C45U | 0.04 |
| G17A G22A G30C U34A G40A | 0.01 |
| G17C A24G G29A G30A | 0.34 |
| A16U G35C G40U | 0.1 |
| G17A G19U G36U A39G C42G | 0.02 |
| A16U G29U G30A G40C | 0.23 |
| G17A U34G C46G | 0.01 |
| G17A A26G U28C | 0.74 |
| G17A C18A A24G A25G U28A G30A U32A G33A G36A | 0.06 |
| G17C G19A G22U G35U G44A | 0.02 |
| G17C A24U A26G G33A G44A | 0.05 |
| G17A U20A G27A G29C | 0.39 |

| Variant | self-cleavage |
| --- | --- |
| A16U G30A U34A G40U | 0.02 |
| G17A A24U G40U | 0.04 |
| A16U C18A G22A | 0.03 |
| A16U U20C G33A U34G C42A | 0 |
| G17A U28G G30A C37G | 0.05 |
| A16U C18U G19C | 1.17 |
| G17C C31U C45G | 0.04 |
| G17A C31U G33U U34G G36U U43A | 0.01 |
| A16U A25U C31U | 0.01 |
| G17A U20C G40C | 0.03 |
| G17A G21U A39C | 0.03 |
| G17A C18A G27U G30C | 0.23 |
| A16U G21A A25U C46A | 0.25 |
| A16U U38A G40U | 0.03 |
| G17A A26G G29U G35U | 0.02 |
| G17A G27C U32A G33A G35U | 0.03 |
| G17A G33A C42A | 0.1 |
| G17C C42A G44C | 0.03 |
| A16U U38A U43G C45U | 0.03 |
| G17A A24C U34A | 0.06 |
| A16U G40U C46U | 0.05 |
| G17A C23A C31U G36U | 0.03 |
| G17A A25C G27U G33C A41U | 0.25 |
| G17C G19A G22C | 0.73 |

| Variant | self-cleavage |
| --- | --- |
| A16U G27U C42G | 0.04 |
| G17A G30C U32A C42A U43A | 0.03 |
| G17C A24G G35U | 0.11 |
| A16U C31A G33A G40U | 0.01 |
| G17A C23G U34G C46A | 0.01 |
| G17A A25G G27U C37G A39G | 0.01 |
| G17A A24C G29C | 0.02 |
| A16U G30U C37A | 0.02 |
| G17A A25C G40C | 0.02 |
| A16U G27A G30U | 0.11 |
| G17A U28C G35U A39G | 0.08 |
| G17A U20C A26C | 0.08 |
| G17A G29C C45G | 0.3 |
| A16U G30U G36C G44A | 0.03 |
| G17A G22C U38C U43C | 0.02 |
| G17A G33A C37A G44A | 0.42 |
| G17A G19U C23U A26U U34G G35U | 0.04 |
| G17A U20A A25U C46G | 0.05 |
| G17A C18A U32A A41G | 0.02 |
| G17A A26U U34A C45U | 0.03 |
| A16U A41G C42A | 0.03 |
| G17A G21A U28G | 0.11 |
| G17A C31A G33U | 0.08 |
| G17A G22A G30A | 0.45 |

| Variant | self-cleavage |
| --- | --- |
| G17C C23U C31G | 0.08 |
| G17A G21U U32A G33U C37A | 0.02 |
| A16U U20A C31A A39C U43A | 0.02 |
| G17A G22C C23G | 0.81 |
| A16U U20C G21C A39G | 0.02 |
| A16U C23U G33C | 0.02 |
| A16U G21C C31U G40C | 0.05 |
| G17A C37A C42U | 0.04 |
| A16U A25C G30A A41U | 0.04 |
| G17A G21C G29C | 1.27 |
| G17A A25U G29U | 0.09 |
| G17A C23U U38G | 0.05 |
| G17C C23A C31U G33A G40C C46U | 0.01 |
| A16U G29A A41G | 0.15 |
| A16U U28C G33A | 0.07 |
| A16U G21A A24G G33U | 0 |
| G17A A26G C31A G35A A39C | 0.02 |
| G17A C18A U38C | 0.08 |
| A16U C23A A25U | 0.1 |
| A16U U34A C37A U43C | 0.01 |
| A16U G21C C23A A25C | 0.03 |
| A16U G21A A39G | 0 |
| A16U C31A G36U | 0.04 |
| G17A G19U C46G | 0.19 |

| Variant | self-cleavage |
| --- | --- |
| G17A C23U A26C C45A | 0.14 |
| G17A A25G G33U | 0.02 |
| G17C C23U G35U A39G | 0.01 |
| G17A C18G G27U U43A | 0.09 |
| G17A C18A G22A G30U | 0.05 |
| G17A G22C A41G | 0.02 |
| G17A U20G U32A | 0.04 |
| G17C C18G G19A A24U U28C G29C G33A U34G G44C | 0 |
| A16U G29A G33C G35A | 0.03 |
| G17C A26C U34G | 0.03 |
| G17C C18U G19A G22U | 0.95 |
| G17A C31A G33C G35U U43C | 0.03 |
| G17A G21A G33A C37G | 0.05 |
| G17A A25U G36A A39C | 0.06 |
| A16U G27A U28C G33C | 0.08 |
| A16U G27C A39C C42A | 0.07 |
| A16U G35A U43A | 0 |
| G17C C23G C46U | 0.56 |
| G17C C37A A41C | 0.04 |
| A16U C23U G29A G35U U38G | 0.02 |
| G17C C18G U20A C23U G29A C31U | 0.29 |
| A16U G27A C42A | 0.08 |
| G17A A24C G33C C37U | 0.02 |
| G17A C23U G36A | 0.07 |

| Variant | self-cleavage |
| --- | --- |
| G17C A26G G27C | 0.13 |
| G17A C18G G33U G40A | 0.02 |
| G17C G19A U32G | 2.22 |
| G17A G19U C45A | 0.04 |
| G17A G27C G36C C45G | 0.03 |
| A16U G17A G30A | 0.07 |
| G17A U32A A41G C42G | 0 |
| A16U C18U G30U A39G | 0.01 |
| G17A C18A U20A A41G | 0.01 |
| G17A C18A G44A | 0.05 |
| G17A G19A C31A U38G | 0 |
| G17C A24C C42U | 0.04 |
| A16U G29U A39C | 0.18 |
| G17C A39U G40C | 0.15 |
| G17A C18U A26C | 0.01 |
| A16U G33C U43A C46G | 0.02 |
| G17A G27C G40A | 0.04 |
| G17A C18A U20A G21U | 0.12 |
| G17A A25C G27A | 0.28 |
| A16U G21A A24U U32C G35C C37A | 0.01 |
| G17A G30C C45G | 0.04 |
| G17A A25U U38A | 0.1 |
| G17A G29U U32A | 0.02 |
| G17A U20A U43G C45A | 0.04 |

| Variant | self-cleavage |
| --- | --- |
| A16U C18U A25G U28G U34G | 0.03 |
| A16U C23U G29U | 0.23 |
| G17C A24G G27A | 0.61 |
| A16U C23A G29U U43A | 0.16 |
| A16U G21C C31U U34G G35C G40U U43C | 0.01 |
| A16U C23A G29U | 0.42 |
| G17C C31A G36U | 0.02 |
| G17A C37A A41U | 0 |
| A16U G21U C31U | 0.02 |
| A16U C18A G40A | 0.01 |
| A16U G44U C46A | 0.02 |
| A16U G17A G19U G27U U38C | 0.16 |
| A16U U28G G35A C37A | 0.02 |
| A16U G17C G22C | 0.16 |
| G17A C18A C31G | 0.03 |
| A16U G29C U43A | 0.02 |
| G17A G21C C31A A39C U43A | 0 |
| A16U A25C C46U | 0.03 |
| G17A G22C C23G G27C G30U U34A A39G | 0.01 |
| G17C C31A A41G G44U | 0.01 |
| A16U C18A C23G A24U | 0.02 |
| G17A C23A A41C U43A | 0.01 |
| A16U C18G U20C A25G C45A | 0 |
